{"source": "the supplement of paper PMC9446081", "note": "The whole screen tested about 39,000 compounds, of which about 220 (0.56%) showed activity. This is one part of the list.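 Also: static incubation at 37 °C against the wild-type strain, values averaged over two biological replicates.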"}
{"tested_on": "Escherichia coli K-12 BW25113", "assay": "relative growth (OD600 normalised to plate interquartile mean) (fraction); higher = less growth inhibition, active = 0.2 or less", "conditions": "50 µM; LB; incubation time: overnight (16-24 h)"}
{"smiles": "COc1nonc1NC(C)=O", "relative growth": "inactive: 0.938"}
{"smiles": "NCc1nc(-c2ccccc2)no1", "relative growth": "inactive: 0.96"}
{"smiles": "C[C@H]1CCCCO[C@H](CN(C)C(=O)C2CCCCC2)[C@@H](C)CN([C@@H](C)CO)C(=O)c2cc(NC(=O)Cc3ccccc3)ccc2O1", "relative growth": "inactive: 0.992"}
{"smiles": "CNC(=O)Cc1ccccc1", "relative growth": "inactive: 0.999"}
{"smiles": "C[C@@H]1CCCCO[C@@H](CN(C)C(=O)Nc2cccc3ccccc23)[C@@H](C)CN([C@H](C)CO)C(=O)c2cc(NC(=O)Cc3ccccc3)ccc2O1", "relative growth": "inactive: 1.01"}
{"smiles": "COc1ccc(CCNC(=O)c2cc3c(=O)n4cccc(C)c4nc3n(CCCN3CCOCC3)c2=N)cc1", "relative growth": "inactive: 0.918"}
{"smiles": "COc1ccc(NC(=O)N(C)C[C@H]2Oc3c(NC(=O)c4cnccn4)cccc3C(=O)N([C@@H](C)CO)C[C@H]2C)cc1", "relative growth": "inactive: 0.965"}
{"smiles": "C[C@@H]1CN([C@@H](C)CO)S(=O)(=O)c2ccc(C#CC3(O)CCCC3)cc2O[C@@H]1CN(C)C(=O)Nc1ccc(F)cc1", "relative growth": "inactive: 1.01"}
{"smiles": "N[C@@]1(C(=O)O)CS(=O)(=O)[C@H]2[C@H](C(=O)O)[C@H]21", "relative growth": "inactive: 1.01"}
{"smiles": "CN1C(=O)c2cc(NC(=O)Cc3cccs3)ccc2OC[C@@H]2O[C@@H](CC(=O)NCCc3ccncc3)CC[C@@H]21", "relative growth": "inactive: 1.02"}
{"smiles": "Brc1ccc(CSc2c[nH]c3ccccc23)cc1", "relative growth": "inactive: 0.939"}
{"smiles": "COc1ccc(S(=O)(=O)N(C)C[C@@H]2OCCCC[C@H](C)Oc3ccc(NC(=O)c4ccccc4)cc3C(=O)N([C@@H](C)CO)C[C@H]2C)cc1", "relative growth": "inactive: 1.02"}
{"smiles": "Nc1cnc(Cl)nc1N", "relative growth": "inactive: 0.996"}
{"smiles": "CO[C@H]1O[C@H](COC(=O)NCCCCCC(=O)NO)[C@H](OC(=O)Nc2ccccc2)[C@H](OC(=O)Nc2ccccc2)[C@H]1OC(=O)Nc1ccccc1", "relative growth": "inactive: 0.918"}
{"smiles": "Cc1noc(C)c1NC(=O)Nc1ccc2c(c1)C(=O)N([C@@H](C)CO)C[C@@H](C)[C@H](CN(C)C(=O)NC1CCCCC1)OCCCC[C@@H](C)O2", "relative growth": "inactive: 0.985"}
{"smiles": "COc1ccc(NC(=O)N(C)C[C@H]2Oc3c(NC(=O)C4CC4)cccc3C(=O)N([C@H](C)CO)C[C@H]2C)cc1", "relative growth": "inactive: 1.04"}
{"smiles": "C[C@H]1CN([C@@H](C)CO)C(=O)Cc2cc(NS(=O)(=O)c3cn(C)cn3)ccc2O[C@H]1CN(C)C(=O)Nc1ccc(F)cc1", "relative growth": "inactive: 0.985"}
{"smiles": "C[C@H](CO)N1C[C@H](C)[C@H](CN(C)C(=O)Nc2ccc(F)cc2)Oc2ccc(NC(=O)Nc3ccc(C(F)(F)F)cc3)cc2C1=O", "relative growth": "inactive: 1"}
{"smiles": "Cc1ccc(S(=O)(=O)N(C)C[C@H]2Oc3c(NC(=O)C4CCOCC4)cccc3C(=O)N([C@H](C)CO)C[C@H]2C)cc1", "relative growth": "inactive: 1.01"}
{"smiles": "C[C@H](CO)N1C[C@H](C)[C@H](CN(C)S(=O)(=O)c2cn(C)cn2)Oc2ccc(NS(=O)(=O)c3ccc(F)cc3)cc2CC1=O", "relative growth": "inactive: 1.02"}
{"smiles": "CC(C)=CCCC(C)=CCCC(C)=CCCC(C)=CCCC(C)=CCCC(C)=CCCC(C)=CCCC(C)=CCCC(C)=CCO", "relative growth": "inactive: 1.12"}
{"smiles": "N#Cc1ccc(CN)cc1", "relative growth": "inactive: 0.974"}
{"smiles": "COc1ccc(NC(=O)Nc2ccc3c(c2)C(=O)N([C@H](C)CO)C[C@H](C)[C@@H](CN(C)S(C)(=O)=O)O3)cc1", "relative growth": "inactive: 1.01"}
{"smiles": "CCCNC(=O)C[C@H]1CC[C@H]2[C@H](COc3ccc(NC(=O)c4ccc5c(c4)OCO5)cc3C(=O)N2C)O1", "relative growth": "inactive: 0.976"}
{"smiles": "C[C@@H]1CN([C@@H](C)CO)C(=O)c2cccc(NS(=O)(=O)c3ccc(Cl)cc3)c2O[C@H]1CN(C)Cc1ccc(-c2ccccc2)cc1", "relative growth": "inactive: 1.02"}
{"smiles": "C[C@H](CO)N1C[C@H](C)[C@@H](CN(C)C(=O)CCC(F)(F)F)OCCCC[C@H](C)Oc2ccc(NS(=O)(=O)c3cccs3)cc2C1=O", "relative growth": "inactive: 0.987"}
{"smiles": "COC(=O)c1cn(C)cn1", "relative growth": "inactive: 0.994"}
{"smiles": "C[C@H](CO)N1C[C@H](C)[C@H](CN(C)Cc2ccccc2)OCc2ccccc2-c2c(n(C)c3ccccc23)C1=O", "relative growth": "inactive: 0.985"}
{"smiles": "C[C@H]1CN([C@@H](C)CO)C(=O)c2cc(NC(=O)CCN3CCOCC3)ccc2O[C@H]1CN(C)C(=O)Nc1ccc(F)cc1", "relative growth": "inactive: 1"}
{"smiles": "C[C@@H]1CCCCO[C@H](CN(C)S(=O)(=O)c2ccc(F)cc2)[C@@H](C)CN([C@H](C)CO)C(=O)c2cc(NC(=O)CCCCCC(=O)Nc3ccccc3N)ccc2O1", "relative growth": "inactive: 0.998"}
{"smiles": "COc1ccccc1CNC(=O)C[C@H]1C[C@@H]2c3cc(NC(=O)Nc4ccc(C(F)(F)F)cc4)ccc3O[C@@H]2[C@H](CO)O1", "relative growth": "inactive: 1.03"}
{"smiles": "NC[C@H]1Cc2ccccc2O1", "relative growth": "inactive: 0.981"}
{"smiles": "CC(C)NC(=O)N(C)C[C@H]1OCCCC[C@@H](C)Oc2ccc(NS(=O)(=O)c3cn(C)cn3)cc2C(=O)N([C@@H](C)CO)C[C@H]1C", "relative growth": "inactive: 0.991"}
{"smiles": "O=C(C[C@@H]1CC[C@H]2[C@@H](COC[C@@H](O)CN2C(=O)Nc2ccc(C(F)(F)F)cc2)O1)NCCc1ccncc1", "relative growth": "inactive: 0.738"}
{"smiles": "CN1C(=O)CC(c2ccccc2)C1=O", "note": "(stereo not drawn)", "relative growth": "inactive: 1.05"}
{"smiles": "COc1ccc(NC(=O)N(C)C[C@H]2OCCCC[C@H](C)Oc3ccc(NC(=O)Cc4ccccc4)cc3C(=O)N([C@H](C)CO)C[C@@H]2C)cc1", "relative growth": "inactive: 1.02"}
{"smiles": "C[C@@H]1CCCCO[C@H](CN(C)S(=O)(=O)c2cn(C)cn2)[C@@H](C)CN([C@H](C)CO)C(=O)c2cc(NC(=O)Nc3cccc4ccccc34)ccc2O1", "relative growth": "inactive: 1.02"}
{"smiles": "Cc1noc(C)c1NC(=O)Nc1ccc2c(c1)C(=O)N([C@@H](C)CO)C[C@@H](C)[C@@H](CN(C)C(=O)Cc1ccccc1)OCCCC[C@@H](C)O2", "relative growth": "inactive: 0.903"}
{"smiles": "C[C@@H]1CN([C@H](C)CO)C(=O)c2cccc(NS(=O)(=O)c3ccccc3)c2O[C@@H]1CN(C)CC1CC1", "relative growth": "inactive: 1.02"}
{"smiles": "N=C(N)SCc1csc(N)n1", "relative growth": "inactive: 0.969"}
{"smiles": "O=[N+]([O-])c1ccc(Oc2ccc(-c3ccccc3)cc2)cc1", "relative growth": "inactive: 1.04"}
{"smiles": "C[C@@H](O)CC1=C[C@H]([C@@H](C)O)OC1=O", "relative growth": "inactive: 0.978"}
{"smiles": "CC(C)NC(=O)N(C)C[C@@H]1OCc2cn(nn2)CCCC(=O)N([C@@H](C)CO)C[C@@H]1C", "relative growth": "inactive: 1"}
{"smiles": "C[C@@H]1CN([C@H](C)CO)C(=O)c2cc(C#CC3(O)CCCC3)cnc2O[C@@H]1CN(C)C(=O)CN(C)C", "relative growth": "inactive: 0.981"}
{"smiles": "C[C@@H]1CCCCO[C@H](CN(C)C(=O)Nc2ccc(C(F)(F)F)cc2)[C@@H](C)CN([C@@H](C)CO)C(=O)c2cc(NC(=O)Nc3ccccc3)ccc2O1", "relative growth": "inactive: 1"}
{"smiles": "COc1ccc(NC(=O)Nc2ccc3c(c2)C(=O)N([C@H](C)CO)C[C@@H](C)[C@H](CN(C)Cc2ccc(C(=O)O)cc2)OCCCC[C@H](C)O3)cc1", "relative growth": "inactive: 0.999"}
{"smiles": "CC(C)NC(=O)NCC[C@@H]1CC[C@H](NC(=O)CN(C)C)[C@H](CO)O1", "relative growth": "inactive: 0.996"}
{"smiles": "O=C(O)c1ccc2c(ccc3nn(-c4ccc(/C=C/c5ccc(-n6nc7ccc8cc(C(=O)O)ccc8c7n6)cc5S(=O)(=O)O)c(S(=O)(=O)O)c4)nc32)c1", "relative growth": "inactive: 1.01"}
{"smiles": "C[C@@H]1CN([C@H](C)CO)C(=O)Cc2cc(NC(=O)Cc3ccccc3)ccc2O[C@@H]1CN(C)S(=O)(=O)c1ccccc1", "relative growth": "inactive: 1.02"}
{"smiles": "CO[C@@H]1CN(C)C(=O)c2cc(NS(=O)(=O)c3ccccc3)ccc2OC[C@H](C)N(C(=O)NC(C)C)C[C@@H]1C", "relative growth": "inactive: 0.998"}
{"smiles": "CC(C)(C)[S@](=O)N1Cc2cc(C(=O)N3CCc4ccccc4C3)nc(-c3cccc(-c4cncnc4)c3)c2[C@@H]1CCO", "relative growth": "inactive: 0.984"}
{"smiles": "Cc1noc(C)c1S(=O)(=O)Nc1ccc2c(c1)C(=O)N([C@H](C)CO)C[C@@H](C)[C@@H](CN(C)C(=O)Nc1ccc(F)cc1)OCCCC[C@@H](C)O2", "relative growth": "inactive: 1.04"}
{"smiles": "CC(C)NC(=O)N(C)C[C@@H]1Oc2cc(C#Cc3cccc(F)c3)ccc2S(=O)(=O)N([C@H](C)CO)C[C@H]1C", "relative growth": "inactive: 0.984"}
{"smiles": "COc1cc2c(cc1OC)[C@]1(Nc3c-2c(-c2ccccc2)nn3-c2ccccc2)C(=O)Nc2ccccc21", "relative growth": "inactive: 0.988"}
{"smiles": "C[C@H]1CN([C@@H](C)CO)S(=O)(=O)c2ccc(C#CC(C)(C)O)cc2O[C@H]1CN(C)C(=O)CN(C)C", "relative growth": "inactive: 0.995"}
{"smiles": "C[C@@H]1CN([C@@H](C)CO)C(=O)c2cccc(NC(=O)CCCCCC(=O)Nc3ccccc3N)c2O[C@@H]1CN(C)Cc1ccc(-c2ccccc2)cc1", "relative growth": "inactive: 0.92"}
{"smiles": "COc1cccc(NC(=O)N(C)C[C@H]2Oc3cc(C#Cc4ccncc4)ccc3S(=O)(=O)N([C@@H](C)CO)C[C@H]2C)c1", "relative growth": "inactive: 0.997"}
{"smiles": "COc1ccc(CN(C)C[C@@H]2OCCCC[C@H](C)Oc3ccc(NS(=O)(=O)c4ccc(OC)cc4)cc3C(=O)N([C@H](C)CO)C[C@@H]2C)cc1", "relative growth": "inactive: 0.996"}
{"smiles": "COC(=O)C[C@@H]1CC[C@H]2[C@@H](COC[C@@H](O)CN2S(=O)(=O)c2ccc(F)cc2)O1", "relative growth": "inactive: 0.976"}
{"smiles": "C[C@@H]1CCCCO[C@H](CN(C)CC2CC2)[C@@H](C)CN([C@H](C)CO)C(=O)c2cc(NC(=O)Nc3cccc4ccccc34)ccc2O1", "relative growth": "inactive: 0.978"}
{"smiles": "CCOC(=O)N(C)C[C@H]1OCc2cnnn2CCCC(=O)N([C@H](C)CO)C[C@@H]1C", "relative growth": "inactive: 1.01"}
{"smiles": "C[C@H]1CCCCO[C@H](CN(C)S(=O)(=O)c2ccccc2)[C@@H](C)CN([C@@H](C)CO)C(=O)c2cc(NC(=O)CCC(F)(F)F)ccc2O1", "relative growth": "inactive: 0.982"}
{"smiles": "C[C@@H]1CCCCO[C@H](CN(C)S(=O)(=O)c2ccccc2)[C@@H](C)CN([C@@H](C)CO)C(=O)c2cc(NC(=O)Nc3ccc4c(c3)OCO4)ccc2O1", "relative growth": "inactive: 1.02"}
